Experimental data: the RNAGym collection of RNA variant scans (doi:10.7554/elife.90254)
Read counts are not given, so values of variants with three or more changes are uncertain.

B1: LINE1-mini (parent)
chain: GGCAGAGCUCAACACAGCGUGGCAAAGUGGCUGUGGCUAGACUGCC

Variants of: B1
Test: self-cleavage, relative activity (ratio to wild type); higher = more cleavage; in vitro, sequencing; the parent is a self-cleaving ribozyme

Variant	self-cleavage
GGCAUAGCUCAACACAGCGUGGAAAAGUGACUGUGGCUAGACUCCC	0.02
GAGAGAGCUCAACACAGCGUGGCAAAGUGGCUGUGCCUAAACUGCC	0.19
CACAGAGCUCAAUACAGCGUGGCAAAGUGGCUAUGGCAAGACUGCC	0.01
GGCAGGGCUCAACACCGCGUGACAAAGUGGAUGUGGCUCGACUGAC	0.01
GGCAUAGCUCAACACAGCGUGGCAAAGUGGCUAUGGCUAGACUCCA	0.05
GGCAGAGCUAAUCACAUCGUGGCAAAGUGGCUGUGGCCAGACUGCC	0
GGCAGAGCUCAACACCGCGUGGUAAAGUGGCUGUGGCUAGACAGCA	0.01
GGCAGAGCUCAACACAGCGUGUCAAAGGGGCAGUGGCUAGACUGCC	0.04
GGCAGAGCUCAACACAGCAUGGUAAAGUGGCUGUGCCUAGACUGCC	0.17
GGCAGAGCUCAACACAGCGCGGCAAAGUGGCUGUGGGUCGACUGCC	0.02
GGCGGAGCUCAACACAGCGUGGCAAACCGGCUGUGGCUAGACUGCC	0.18
GGCAGAGCUCAAUAUAGCGUGGCAAAGUGACUGUGGCUAGACCGCC	0.18
GGCAGCGCUCAACGCAGCGUGUCAAAGUGGCUGUGGCUAGGCUGCA	0.12
GACAGAGGUCAACACAACGUGGCAAAGUGGCCGUGGCUAGUCUGCC	0.1
GGCAGAUCUAUACACAGCGUGGCACAGUGGCUGUGGCUAGACUGCC	0.01
GGCCUACCUCAACACAGCGUGGCAAAGUGGCUGUGGCUAGACUGCC	0.05
GGCAGAGCUCAACACAGCGCGUCUAACUGGCUGUGUCUAGACUGCC	0.01
GGUAGAGCUCAACACAGCGUGGCAAAGUGGCUGUGGCUAGACUCCA	0.07
GGCAAAGCUCAUUAAAGCGUGGUUAAGUGGCUGUGUCUAGACUGCC	0.02
GGCAGAGCUCAACACAGCGUGGUAAGGUGGUCGUGGCUAGACUGCU	0.01
GGCAGAGAUCAACACAGCGUGACAAAGUGACUGUGACUAGACUGCC	1.35
GGCAGAGCUCAACACAGCGUGGCAAAGUGGCUGCGGAUCGACUGCC	0.04
GGCAGAGCUCAACAAAGCGUGGCAAAGUGGCUGUGGCUAGACUCCA	0

Variant	self-cleavage
GGCAGUGCUCAACACAGCGUGGCAAAGUGGCUAUGGCUGGACAGCC	0.19
GGCAGAACUCUACACAGCGUGGCAAAGUGGUUGUGGCAAGACUGCC	0.01
GGCUGAGCUCAACACCGCGUCGCAAACUGGCUGUGGCUAGACUGCC	0.95
GGGGGAGCUCAACACAGCGUGCCAAAGUGGCUGUGGCUAGACUGCC	0.14
GGGAGAGCUCAACGCAGCGUGGCAAAGUGGCUGUGGCUAGAUUGCC	0.05
GUCAGAGCUCAACACAGCGUGGCAAAGUGGCUGUCGCUAGAUUGCC	0.01
GGCAGAGCUCAACACAGCGUGGCACAGUACCUGUGGGUAGGCUGAC	0
GGCAGAGCUCAACACAGCGUGGCACAUUGGCUGCGGCUAGACUGCC	0.07
GGCAGUGCUCAACACAGCGUUGCAAAGUGGCUGUGGCUAGACUACC	0.46
AACAGAGCUUAACACAGCGUGGCAAAGUGGCUGUGGCUAGACUGCC	0.19
GGCAGAGCUCAACACAACGUGGCAAAGUGGGUGUGGCUAUACUGCC	0.01
GGCAGAGGUCAUCACAGCGUGGCAAAGUGGCUGCGGCUAACCUGCC	0.02
GGCAGAGCUCUACACAGCGAGGCAAAGUGGUUGUGGCUAGACUGCC	0.04
GGCAGAGCUCAAUACAGCGUGGAAAAGUGGCUGUUUCUAAACUGCA	0.19
GGCAAAUCUCAACACAGCGUGGCAAAGUGACUGUGGCUAGACUGCC	1.09
GGCAGGGCUCAACAAAGCGUGCCAAAUUGGCUGGGGCUAGACUGCG	0.03
GGCAGAGCUCAACACACCCAGGCAAAGUCGCUGUGGCUAGCCCGCC	0.05
GGCAGAGAUCAACACAACGUGGCAAAGUGGCUGUGGAUAGACUGCC	0.33
GGCAGAGCUCAACACAGCUUGUCAAAGAGGCUGUGGGUAGACUGCC	0.01
GGCAGAGCUCAACAUAGCGUGGCAAAGUGGCUGUGUCUACACUGUC	0.15
GGCAGAGCUCAACACAGGGUGGCAAAGUGGCUGUGGCGACACUGUC	0.01
GCCAGUGCUCAACACAGCGUGGCAAAGUGUUUGUGGCUAGACUGCC	0.13
GGCCGAGCUUAACACAGCGUGGCAAAGGGGCUGUGGCUAUACUGCC	0.01

Variant	self-cleavage
GGCAGAGCUCUACACAGCGGGGCAAAGUGGCUGUGGCUAUACUGCC	0.01
GGCAGAGCGCAACACAGCGUGGCAAAGUGGCUGUGGAAAGACUGCC	0.03
GGCGGAGCUAAACACAGCGUGGCAUAGUGGCUGUGGCUAGGCUGCC	0.01
GGCAGAACUCAACCCUGCGUGGCAAAGUGGGUGUGGCUAGACUGCC	0.05
GGUAGAGCACAACACAGCGUGGAUAAGUGGCUGUGGCUAGACUGCC	0.17
GGCAGAGCUGGACACCGGGUGGUGAAGUGGCUGUGGCAAGACUGCC	0
GGCAGAGCUAAACACAGCGUGUCAAAGUGGCUGUGGCUAUACUGCC	0.02
GGCACAGCUCAACACAGCAUGGCAAAGUGGCUGUGGCUAUAGUGCC	0.22
GGCAGAGCUCAACACCGCGUGGCAGAGUGGCUGUGGCUAGACUCCG	0.04
GGCAGAGCUCAACACAGCCUGGCCCAGUGGCUGUGGCUAGACUGCC	0.13
GGCAGAGCUUAACACAGCGUGGGAAAGCGGCUGAAGCUCGACUGCC	0
GGCUGAGCUCAACACAGCGAGGCAAAGUGGCUGUGGCUAGACUGAC	0.05
GGCAGAGCUCGACACAGCGUGGCAAAGUGACUGUGGCUAGGCUGCC	0.03
GUCAGAGCUCAACACAGUGUGGCAAAGUGGCCGCGGCUAGACUGCC	0.02
UGUAGAGCUAAACACAGUGUGGCUAAGUGGCUGUGUCUAGACUGCC	0.01
GGCAGAGCUCAACACACCGUCGCAAACUGGCUGUGGCUACACUGCC	0.07
GUCAGAGCUCAACACAGCGUGGCACAGUUGCUGUGGCUAGACAGCC	0.11
GGCAGAGGUCAACUCAGCGUGGCAAAGUGGCUGUGGUUAGACUGCC	0.02
GGCAGAGCUCAACAGAGCGUGGCAAUGUGGCUGAGGCUAGACUGAC	0.03
GGCAUAGCUCAAAUCAGCGUGGCAAAGUGGCUGUGGCUAGACUGCC	0.05
GGUAGAGCUCAACACAGCGUCGCAAAGUGGCUUUGUCUAGACUGCC	0.06
AGCACCGCUCAACACAUCGUGGCAAAGUGGCUGUGGCUAGACUGCC	0.18
GGCAGAGCUCAACACAGCGUGGCAUAGUGGUUGUGGGUAGACUGCC	0.01

Variant	self-cleavage
GGCAGGGCUCAACACAGCCGGGCAAAGUGACUGUGGCUAGACUGCC	0.08
GGCAGAGCUCUACCCAGCGUGGAAAAGUGGCUGUGGCUAGACUGCC	0.01
GUCAGAGCUCAACGCAGGGUGGCAAAGUGGCUGUGGCUAGACUGCC	0.02
GGCAGAGCUUAACACAGCGUGGCAAUGUGGCUGUGGCUAGACCGCU	0.11
GGCAUAGCUCAACACAGCGCGGCAAAGUGGCUGUGGCUAGACUGCG	0.04
GGCAGAGCCCAAUACAGCGUGGCAAAGUGGCUGUGGCAAGACUGCC	0.03
GUCAGAGCUCAACACAGAGUGGCAAAGUGGCUGUGGCAAGGCUGCU	0
GGCAGAGCUCAACACACCGCGGCAUAGUGCCUGUGGCUAGACUGCC	0.22
GUAAGAGCUCAACGCAGCGUGUCAAAGUGGCUGUGGCUAGACUGCG	0.06
GGCAGAGCUCAACACAGCGUGGCAAAGCGGUUGUGGCUAGAAUGCC	1.68
GGCAGAGCUGAACACAUCGUGGCAAAAUGGAGGUGGCUACACUGCC	0.01
AGCAGAGCUCCUCACAGCGUUGCACAGUGGCUGUGGCAAGACUGGC	0.01
GGCAGAGCUCAACUCAGAGUGGCAAAGUGGAUGCGGCUAGACUGCC	0.05
GGCAGAGCUCUAGACAGCGUUGCAAAGUGGCUGGGGCUAGACUGCC	0.01
UGGAGAGGUCAACACAGCGUGGCAAAGUCGCAGUGGCUAGACUGGC	0.03
GGCAGAGCUCAACACAUCGUGGCAACGUGGAUGUGGCUAGACUCCC	0.38
GGCAGAGCUGAAAACAGCGUGGCAAAGUGGCUUUGGCUAGACUGUC	0.01
GGCAGCGCUCAACACAGCGUGGCAAAGUGGCUGUUGCAAGACUGCC	0.18
GGCAGAGCUCAACACAGCGUGGCAAAGUUGAUGUGGCUAGAAUGCC	0.14
GGCAGAGCUCAUCACAGCGUGGCAAAUUGGACGUGGCUAGACUGUC	0.06
GGCAGACCUCAACACGGCUUGGCAAAGUGCAUGUGGCUAGACUGCC	0.01
GGCAGAGCUCAGCACAGGGUGGCAAACUGGCUGUGGCUAGACUGCC	0.02
GGCAGAGGUCAACACAGCGUGUAAAAGUGGCUGUGGCUAGUCUGCC	0.19

Variant	self-cleavage
GGCAAAGCUCAACACAGCGUGGCAAAGUGGCAGUGGCUACACUGCC	0.04
GGGAGAGCUCAACACAGCGGGGCCAAGUGGCUGUGGCUAGAAUGCC	0.04
GGGAGAUCUCAACACAGCGUGGCCAAGUGGCUGUGGCCAGACUGCC	0.05
GGCAGAGGUCAACACAGCGUGGCAAAGUGGCAGUGGCAAGAGUGCC	0.03
GGCAGAGCUCAACAGAGCGUGGCAAAGUGGCUGUGGCUCAACUGCA	0.08
GGCAGAGCUCAACACAGAAUGGCAAAGUGCCUGUGGCUAGACUGCC	0.58
GGCAGAGCUCAACACAACGUGGCUAAGUGGCUGAGGCUAUACUCCC	0
GACACAGCUCAGCACAGCGUGCCAAACUGGCUGUGACUAGACUGCC	0.05
CGCAGAGCUCAACACAGCGUGACAAAGUGGCUUUGGCUAGACUGCA	0.02
UGCAGAGAUCAACACAGUGUGGCAAAGUGGCUGUGGCUAGACUGCC	0.41
GGCAGACCUCAACACAGCGUUGCAAAGUGGCUGUGGCUACAUUGCC	0.06
CGCAGAGCUCAACACAGCGUGGCAAAAUGGCUGUGUCUAGACUGCC	0
GGCAGAGCUCAAUACAGCGUGGCAUAGUGGCUGUUGCUAGACUGCC	0.29
GGCAGAGCUAAACACAGCGUGGCAGAAUGGCUGCGGCUAGACUGCC	0.02
GGCAGAGCUCGACACAGGGUGGCAAAUUGGCUGUGGCUAGACUACC	0.01
GGCCGACCUCAACAGAGCGUGGCAAAGUGGCUGUGGAUAGACUGCC	0.03
GGCUGAGCUCAACACAGCGUUGCAAAGUGGCUGCGGCUAGACUGCC	0.04
GGCUGAGCUCAACACAGCGUGCCAAAGUGGCUGUGGCUAGACUGAC	0
GGCAGACCUCAACACAGCGUGGCAAAGCGGCUGAGGCUUGAUUGCC	0.04
GCCAGAGCUCACCACAGCGUGGCAAAGUGGCUGUGGCUAAACUGCC	0.01
